Source: PubChem BioAssay AID686979 (National Center for Advancing Translational Sciences (NCATS), 2013)
“And” between values parts separate entries of the source, which are not always exact repeats. Identical values can stand only once. In all, about 420,000 compounds went through this assay and about 50,000 (12%) were called active. The shares of active, inactive and inconclusive entries below differ from those in the screen. The call rests on the fitted dose curve; in most records, active means well fitted inhibition curve with a large enough effect; inconclusive means small, poorly fitted or top-dose-only effect; inactive means flat fitted curve, though single readings scatter. Potencies of inconclusive entries are doubtful fits and often do not repeat.

Assay: qHTS for Inhibitors of human tyrosyl-DNA phosphodiesterase 1 (TDP1): qHTS in cells in presence of CPT; further: nearly all actives have a fitted effect of over 55% in size
Conditions: chicken DT40 Tdp1-/-;hTDP1 cells + 20 nM CPT, ATP luminescence, 48 h; activity change, negative = growth inhibition: at 46.2 µM (top of the series) unless noted
How it was run: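 Chicken DT40 Tdp1-/- cells complemented with human TDP1, 400 cells/well, exposed to compounds plus 20 nM camptothecin for at least 48 h at 37 C; viability read as ATP content by CellTiter-Glo luminescence.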
On the % scale 0 is the no-effect control and ±100 the full control effect; potency means the concentration at half of the fitted maximal effect; tags describe the fitted curve by direction and shape.

| SMILES | Potency | activity change, negative = growth inhibition |
| --- | --- | --- |
| C=C[C@@]1(C)C[C@H](OC(=O)CSC(C)(C)CNC(=O)[C@@H](N)C(C)C)[C@@]2(C)C(C)CC[C@@]3(CCC(=O)[C@@H]32)[C@H](C)[C@H]1O (stereo partly specified) | active: 0.112 µM |  |
| CCOC(=O)N1CCN(C(=O)/C=C/c2ccc(C(C)(C)C)cc2)CC1 | inconclusive: 29.1 µM [inhibitor, single point] |  |
| COC(CNS(=O)(=O)c1ccc(S(=O)(=O)NC2CC2)cc1)OC |  | inactive: -3.1% |
| Clc1ccc(-c2nc(-c3ccccn3)no2)cc1Cl | inconclusive: 16.4 µM [inhibitor, partial curve] |  |
| N=c1n(Cc2ccccc2)c2ccccc2n1CC(O)COc1ccc(Cl)cc1Cl (stereo unspecified) | active: 20.6 µM |  |
| COc1ccccc1CNC(=O)CCC1N=C2c3ccccc3N=C(SCc3ccc(C)cc3C)N2C1=O (stereo unspecified) | active: 16.4 µM |  |
| CCOc1ccccc1OCCCC(=O)N1CCN(S(=O)(=O)c2ccc(Cl)cc2)CC1 | inconclusive: 29.1 µM [inhibitor, single point] |  |
| COc1ccc(Cl)cc1NC(=O)CSc1cccc[n+]1[O-] |  | inactive: -15% |
| Cn1ccnc1SCC(=O)N(C1CCCCC1)C1CCCCC1 | inconclusive: 23.1 µM [inhibitor, partial curve, poor fit] |  |
| CC(N=C(NC#N)Nc1ccncc1)C(C)(C)C (stereo unspecified) | inconclusive: 16.4 µM [inhibitor, single point] and inconclusive: 29.1 µM [inhibitor, single point] |  |
| Cc1ccccc1Nc1c(-c2ccc(N3CCOCC3)cc2)nc2ccccn12 | inconclusive: 18.4 µM [inhibitor, single point] |  |
| Cc1c(C(=O)N2CCN(Cc3ccccc3)CC2)sc2ncnc(N3CCOCC3)c12 | inconclusive: 29.1 µM [inhibitor, single point] |  |
| Cc1ccc(O)c(-c2[nH]ncc2C(=O)c2ccc(Br)cc2)c1 | inconclusive: 13 µM [inhibitor, partial curve] |  |
| COC(=O)C1=C(C)NC(=O)/C1=C\c1cc(C)n(-c2cc(C)cc(C)c2)c1C | inconclusive: 18.4 µM [inhibitor, single point] |  |
| CC(C)NC(=O)c1nn(-c2ccccc2F)nc1CO |  | inactive: -8.52% |
| CN(C)c1ccc(/C=N/NC(=O)Cn2nnc3ccccc32)cc1 |  | inactive: -6.81% |
| COc1ccc(-c2nc(SCC(=O)Nc3ccc4c(c3)OCCO4)c(-c3ccc(C)cc3)[nH]2)cc1OC | inconclusive: 29.1 µM [inhibitor, single point] |  |
| CC(=O)NC(C)(c1ccccc1)c1nc(-c2cccc(C(F)(F)F)c2)cs1 (stereo unspecified) | inconclusive: 29.1 µM [inhibitor, single point] |  |
| NC(=O)CSc1nnc(Cn2c(=O)sc3ccccc32)n1-c1ccccc1 | inconclusive: 29.1 µM [inhibitor, single point] |  |
| Cc1ccc2nc(-c3ccc(NC(=S)NCC(C)(C)CN(C)C)cc3)sc2c1 | active: 6.51 µM |  |
| C/C=C(/C)C(=O)O[C@@H]1[C@H](OC(C)=O)c2c(ccc3ccc(=O)oc23)OC1(C)C | inconclusive: 20.6 µM [inhibitor, single point] |  |

| SMILES | Potency | activity change, negative = growth inhibition |
| --- | --- | --- |
| c1ccc(-c2cc(-c3nn4c(-c5ccco5)nnc4s3)c3ccccc3n2)cc1 | active: 7.08 µM |  |
| CCOc1ccc(N(CC(=O)NCc2ccc(F)cc2)S(=O)(=O)c2c(C)noc2C)cc1 | inconclusive: 29.1 µM [inhibitor, single point] |  |
| Cc1ccc(CNC(=O)CN2C(=O)COc3ccc(S(=O)(=O)Nc4ccccc4)cc32)cc1 | inconclusive: 29.1 µM [inhibitor, single point] |  |
| COc1ccc(CNCC(O)(c2ccccc2)c2ccc(F)cc2)cc1OC (stereo unspecified) | inconclusive: 23.1 µM [inhibitor, single point] |  |
| C=CCn1c(COc2ccccc2)nnc1SCC(=O)N/N=C/c1ccc(C)cc1 | inconclusive: 29.1 µM [inhibitor, single point] |  |
| CCOc1cc(Br)c(CN2C(=O)NC3(CCCCCC3)C2=O)cc1OCC | inconclusive: 23.1 µM [inhibitor, single point] |  |
| O=C(C[n+]1cc(Br)cc2ccccc21)c1ccc(Br)cc1 | inconclusive: 22.4 µM [inhibitor, single point] and inconclusive: 20.6 µM [inhibitor, single point] |  |
| Cc1ccc2c(c1)-c1ncc(C(=O)c3ccccc3O)cc1CO2 | inconclusive: 20.6 µM [inhibitor, single point] |  |
| O=C(O)c1ccc(S(=O)(=O)c2ccc(Sc3ccc(C(=O)O)c(C(=O)O)c3)cc2)cc1 |  | inactive: -3.94% |
| CCCCC1CCC(C(=O)N(C)CC(=O)Nc2cccc(F)c2)CC1 (stereo unspecified) | inconclusive: 29.1 µM [inhibitor, single point] |  |
| CCSC1=C(C#N)C(=O)n2c1cc1c2CCCC1 | inconclusive: 16.4 µM [inhibitor, partial curve] |  |
| CCOc1cc(/C=N/NC(=O)COc2ccc(Cl)cc2)ccc1OS(=O)(=O)c1ccccc1 | inconclusive: 29.1 µM [inhibitor, single point] |  |
| COc1ccc(-n2c(SCC(=O)c3ccc[nH]3)nnc2-c2ccccc2)cc1 |  | inactive: -0.533% |
| CC(=O)C12OC1CC1C3CCC4=CC(=O)CCC4(C)C3CCC12C (stereo unspecified) | inconclusive: 29.1 µM [inhibitor, single point] |  |
| CC1CCCC(C)N1C(=O)COC(=O)c1ccc(Br)c(S(=O)(=O)N2CCOCC2)c1 (stereo unspecified) |  | inactive: -13.8% |
| CCn1c(=N)n(CC(O)COc2cccc(C)c2)c2ccccc21 (stereo unspecified) | active: 14.6 µM |  |
| CC(=O)OCC(=O)[C@@]1(OC(C)=O)[C@@H](C)C[C@H]2[C@@H]3C[C@H](F)C4=CC(=O)C=C[C@]4(C)[C@@]3(F)[C@@H](O)C[C@@]21C | inconclusive: 29.9 µM [inhibitor, single point] |  |
| O=C(Nc1ccccc1N1CCOCC1)c1ccc2ccccc2n1 | inconclusive: 20.6 µM [inhibitor, single point] |  |
| Cc1cccc(N2CCN(C(=O)CNC(=O)C3CCCCC3)CC2)c1C | active: 18.4 µM |  |
| Cc1ccccc1-c1cccc([C@@H]2C[C@H]3[C@H](CON3C)CN2Cc2ccccc2)c1 | active: 23.1 µM |  |
